In publication PMC4336329 (PLoS ONE, 2015):
Among all 310,000 compounds or so, about 14,000 (4.5%) showed an effect of 50% or more. Effects have a minus sign here. The list shows a part of the results.

biological target: human ether-à-go-go-related gene (hERG) potassium channel (human, UniProt Q12809); assay: primary screen, population patch clamp on CHO cells stably expressing hERG
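Note: peak tail current of the secondary pulse compared with the same well before compound.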

Sequence of human ether-à-go-go-related gene (hERG) potassium channel (Q12809 whole entry, looked up): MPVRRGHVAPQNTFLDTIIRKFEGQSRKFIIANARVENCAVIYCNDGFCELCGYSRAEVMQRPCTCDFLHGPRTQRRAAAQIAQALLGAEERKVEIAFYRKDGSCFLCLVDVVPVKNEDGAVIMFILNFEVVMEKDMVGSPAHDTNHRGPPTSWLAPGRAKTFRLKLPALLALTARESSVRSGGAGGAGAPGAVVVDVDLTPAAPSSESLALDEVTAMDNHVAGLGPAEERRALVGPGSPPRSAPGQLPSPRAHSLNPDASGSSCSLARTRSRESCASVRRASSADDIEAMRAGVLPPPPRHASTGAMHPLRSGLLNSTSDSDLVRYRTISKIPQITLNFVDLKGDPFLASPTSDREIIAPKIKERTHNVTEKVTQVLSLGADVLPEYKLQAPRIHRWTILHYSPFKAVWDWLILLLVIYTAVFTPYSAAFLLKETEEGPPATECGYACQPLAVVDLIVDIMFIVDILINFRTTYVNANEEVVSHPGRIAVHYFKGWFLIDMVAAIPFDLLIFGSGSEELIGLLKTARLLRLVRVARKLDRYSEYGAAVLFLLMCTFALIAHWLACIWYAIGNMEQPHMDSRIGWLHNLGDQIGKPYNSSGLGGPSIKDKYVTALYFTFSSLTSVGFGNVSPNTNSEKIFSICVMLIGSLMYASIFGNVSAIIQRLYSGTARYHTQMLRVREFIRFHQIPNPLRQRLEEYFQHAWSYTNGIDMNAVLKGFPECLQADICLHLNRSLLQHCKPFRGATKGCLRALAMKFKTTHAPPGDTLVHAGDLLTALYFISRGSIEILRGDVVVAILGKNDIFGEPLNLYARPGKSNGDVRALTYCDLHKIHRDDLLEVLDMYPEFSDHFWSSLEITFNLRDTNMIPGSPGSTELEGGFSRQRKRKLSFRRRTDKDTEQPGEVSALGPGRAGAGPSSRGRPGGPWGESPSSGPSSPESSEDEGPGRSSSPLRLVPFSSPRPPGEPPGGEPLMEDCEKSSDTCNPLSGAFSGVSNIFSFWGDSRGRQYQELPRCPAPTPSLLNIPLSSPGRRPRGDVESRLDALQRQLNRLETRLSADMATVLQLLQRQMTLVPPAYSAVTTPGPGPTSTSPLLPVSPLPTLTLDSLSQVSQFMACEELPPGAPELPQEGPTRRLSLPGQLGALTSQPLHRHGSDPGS

| Structure (SMILES) | hERG current change (%, negative = inhibition) at 10uM [%] |
| --- | --- |
| CC(C)[C@@H](C(=O)NC1CCN(Cc2ccccc2)CC1)N1C(=O)N2CCc3c([nH]c4ccccc34)[C@@]2(C)C1=O | -74.6 |
| O=C(NCCN1C(=O)S/C(=C\c2ccc(Cl)c(Cl)c2)C1=O)C1COc2ccccc2O1 (stereo not shown) | -9.28 |
| Cc1oc2cc3oc(=O)c(CCC(=O)NCCN4CCOCC4)c(C)c3cc2c1C | -4.78 |
| CC(=O)Nc1ccc(C2=NNC(=NCC3CCCO3)SC2)cc1 (stereo not shown) | 12.5 |
| CCOC(=O)c1ccc(N=c2sc(C(=O)OC)cc(=O)n2CCCN2CCOCC2)cc1 | -15.9 |
| O=Nc1c(O)[nH]c2ccc(F)cc12 | 4.06 |
| NC(=O)NC(=O)COC(=O)/C=C/c1cccs1 | 10.7 |
| CC(=O)N1CCN(CC(=O)Nc2ccc(C#N)c(Cl)c2)CC1 | -71.7 |
| CCOC(=O)c1c(C)[nH]c(C(=O)N2CCN(C(=O)OCC)CC2)c1C | 6.34 |
| OC1=C(O)c2nc3cc(F)ccc3nc21 | 10.9 |
| COc1ccccc1-c1cc(C(F)(F)F)nc(S(=O)(=O)CCCC(=O)O)n1 | 18.8 |
| CC(C)Cn1c(N)c(C(=O)COC(=O)c2nccnc2N)c(=O)n(C)c1=O | -17.6 |
| Cc1cccc(OCC(=O)NNC(=O)Nc2cccc(Cl)c2)c1C | 12 |
| C=CCNC(=O)C(C)N1c2cccc3cccc(c23)S1(=O)=O (stereo not shown) | 9.53 |
| O=C(c1ccc2c(c1)OCO2)N(CC1CCCO1)C1(C(=O)NC2CCCCC2)CCCCC1 (stereo not shown) | -12.7 |
| FC(F)(F)/C(=N\P(=S)(N1CCOCC1)N1CCOCC1)N1CCOCC1 | 12.6 |
| O=C(CNC(=O)c1cccs1)Nc1ccc(N2CCOCC2)cc1 | 8.43 |
| Cc1ccc(-n2c(O)c(C=NCCC3=CCCCC3)c(=O)[nH]c2=O)cc1 | 7.19 |
| c1ccc(-c2cc(N3CCCCCC3)n[nH]2)cc1 | -9.09 |
| CC(=O)Nc1nnc(COc2ccc(Cl)cc2)s1 | 30.7 |
| COCCNC(=S)NCc1ccc2[nH]c3c(c2c1)CCCC3 | 0.473 |
| Cc1cccc(C(=O)O/N=C(\N)CS(=O)(=O)c2ccccc2)c1 | 11.9 |
| O=C(OCc1nnc(-c2ccccc2)o1)C1CC(=O)N(Cc2ccco2)C1 (stereo not shown) | -24.1 |

| Structure (SMILES) | hERG current change (%, negative = inhibition) at 10uM [%] |
| --- | --- |
| CCn1c(NCc2cc(Cl)ccc2O)nc2ccccc21 | -1.24 |
| O=C1OCCC1Sc1nc2ccccc2c(=O)n1Cc1ccccc1 (stereo not shown) | -82.4 |
| COc1cc(OC)c(NS(=O)(=O)c2cccc(C(=O)OCC(=O)NCC3CCCO3)c2)cc1Cl (stereo not shown) | 20.6 |
| O=C(CN1C(=O)C2C3C=CC(C3)C2C1=O)Nc1cccc(S(=O)(=O)N2CCCC2)c1 (stereo not shown) | 5.26 |
| COc1ccccc1NC(=O)C(=O)NCc1ccccc1Cl | 10.5 |
| O=C1c2ccccc2CCc2ccc(Br)cc21 | 18.4 |
| CN(C)c1ccc(C=NCCC2(c3ccccc3)CCOC(C)(C)C2)cc1 (stereo not shown) | 15.3 |
| Cc1[nH]c(=O)[nH]c(=O)c1CSc1nnc([C@@H](NC(=O)OC(C)(C)C)C(C)C)o1 | -30.8 |
| COc1ccc(N(CC(O)Cn2c3ccccc3c3ccccc32)S(=O)(=O)c2ccccc2)cc1 (stereo not shown) | 3.8 |
| Cc1ccc(S(=O)(=O)CCSc2n[nH]c(=O)n2-c2ccc3c(c2)OCCO3)cc1 | -6.25 |
| O=C(CSc1nnc(-c2ccco2)o1)Nc1cccc([N+](=O)[O-])c1 | 12.7 |
| COc1ccc(C(C)=O)cc1CSc1nnc(-c2ccncc2)o1 | -22.8 |
| CCOC(=O)c1cccc(NC(=O)CSc2nnc(-c3ccncc3)n2CCCOC)c1 | -50.4 |
| COc1ccccc1/C=C/C(=O)OCc1nc2ccccc2c(=O)[nH]1 | 13.8 |
| O=c1c(-c2ccco2)[n+]([O-])c2ccccc2n1OCc1ccccc1F | 4.45 |
| CC(=O)Nc1ccc(OCC(O)CNC2CCCC2)cc1.Cl (stereo not shown) | 6.24 |
| O=C(OCc1ccc([N+](=O)[O-])cc1)c1cc(=O)c2ccccc2o1 | 16.9 |
| CCSc1n[nH]c2nc3c(c(=O)n12)C1(CCCCC1)Cc1ccccc1-3 | -13.9 |
| N=c1c2c3c(sc2ncn1Cc1ccccc1)CCCC3 | -49.7 |
| COC(=O)c1ccc(NC(=O)c2cccnc2)cc1 | 16.5 |
| CCN(CCNC(=O)C1CCN(S(C)(=O)=O)CC1)c1ccccc1 | -1.8 |
| CCOC(=O)N1CCC(N2CCN(C3CCCC3)C(CCO)C2)CC1 (stereo not shown) | -15.4 |
| CCc1cccc(NC(=O)Nc2ccc3c(c2)OCO3)c1 | 15 |

| Structure (SMILES) | hERG current change (%, negative = inhibition) at 10uM [%] |
| --- | --- |
| COc1ccc(NC(=O)C2C3CCC(C3)C2C(=O)O)cc1OC (stereo not shown) | 20 |
| CCC(CC)c1nnc(NC(=O)C2CSC3(C)CCC(=O)N23)s1 (stereo not shown) | -12.2 |
| Fc1ccc(C2=CC(c3ccco3)n3ncnc3N2)cc1 (stereo not shown) | -11.3 |
| O=C(O)c1cccc(N/N=C/c2ccc(F)c(F)c2)c1 | 12.4 |
| Cc1ccc(F)cc1NC(=O)CSc1nc(Nc2ccccc2)nc(N2CCOCC2)n1 | -3.75 |
| CCN(C(=O)Cn1c(=O)n(-c2cc(OC)c(OC)c(OC)c2)c(=O)c2ccccc21)c1cccc(C)c1 | 12.3 |
| COc1ccccc1-c1nc(-c2cccc(C)c2)no1 | 2.36 |
| O=C(c1cccs1)N(C(=O)c1cccs1)c1ccccn1 | 9.68 |
| COc1ccc2nc(/N=C\N(C)C)sc2c1 | -5.89 |
| N#CC(c1ccccc1)c1cccc(Cl)n1 (stereo not shown) | 7.45 |
| CCCn1c(N)c(N(CCOC)C(=O)c2ccc(-c3ccc(Cl)cc3)o2)c(=O)[nH]c1=O | 3.31 |
| COc1ccc(C)cc1NCc1ccc(OC)c(C)c1OC.O=C(O)C(=O)O | -2.3 |
| Cc1nc2c(C)c(C)c(C)c(C)c2nc1C | 8.49 |
| O=C(c1ccc(Cn2cc([N+](=O)[O-])cn2)o1)N1N=C(C(F)F)CC1(O)C(F)F (stereo not shown) | -20.4 |
| O=C1C(Cl)=C(Nc2ccccc2)C(=O)c2ccccc21 | -1.76 |
| CC(C)c1ccc(NC(=O)Cc2c(C(=O)O)n(C)c3ccccc23)cc1 | 13.7 |
| O=C(Nc1ccccc1)c1cccn(Cc2ccccc2)c1=O | 13.7 |
| Cc1cc[n+](C(C)C(=O)c2ccc(Cl)cc2)cc1.[Br-] (stereo not shown) | -10.5 |
| Cc1ccn2c(CN3CCOCC3)c(-c3ccccc3)nc2c1 | -31.5 |
| Cc1ccc(-c2csc(N(Cc3ccco3)C(=O)c3cccs3)n2)cc1 | 11.6 |
| Cn1ccnc1-c1nc2ccccc2[nH]c1=O | 1.04 |
| COc1ccc(/C=C/C2=CC(C)(C)NC(=S)N2)c(OC)c1 | 31.6 |
| O=C(CN1CCN(S(=O)(=O)c2ccc(F)c(Cl)c2)CC1)N1CCOCC1 | 6.2 |

| Structure (SMILES) | hERG current change (%, negative = inhibition) at 10uM [%] |
| --- | --- |
| COc1ccc2cc3c(N)nn(C(=O)Cc4ccccc4OC)c3nc2c1 | -23.1 |
| O=C(NC(c1ccccc1)c1ccccc1)N1CCOCC1 | 16.3 |
| Nc1ccccc1Cl | 10.3 |
| CSc1nc(O)c(Nc2cccc(Cl)c2)c(=O)[nH]1 | 15 |
| O=C(C1CCCN(S(=O)(=O)c2ccccc2)C1)N1CCCc2ccccc21 (stereo not shown) | -30.2 |
| O=C(Nc1ccnn1C1CCN(C/C=C/c2ccc(F)cc2)CC1)C1CCCC1 | -76.2 |
| COc1cc(/C=N\NS(=O)(=O)c2ccccc2)cc(OC)c1OC | 14.2 |
| CCCCNC(=O)COC(=O)c1ccc(Cl)c(S(N)(=O)=O)c1 | 6.27 |
| COc1ccc(S(=O)(=O)Nc2ccc3c(c2)OCO3)cc1OC | 21.7 |
| CC(=O)N1CCN(C(=O)c2cc(S(=O)(=O)N(C)c3ccc(F)cc3)ccc2Cl)CC1 | -14.2 |
| NS(=O)(=O)c1ccc(-c2ccc(C=C3C(=O)NC(=S)NC3=O)o2)cc1 | 18.8 |
| Cc1cccc(C(=O)N2CCCC(Nc3ccc(C)c(C)c3)C2)n1 (stereo not shown) | 5.87 |
| Cc1ccc2oc(=O)c3cnn(CC(=O)NCCN(C)C)c3c2c1 | 9.34 |
| Cl.O=C(CNCCO)N1CCc2ccccc21 | -5.27 |
| N[C@@H](Cn1oc(=O)[nH]c1=O)C(=O)O | 14.6 |
| CCCCOc1ccc(C(=O)NC)cc1 | 6.96 |
| CCOC(=O)CN1C(=O)/C(=C/c2c(F)cccc2Cl)Oc2ccccc21 | 9.08 |
| Cc1cc(N2CCCCC2)nc(NCc2ccccc2)n1 | -35.2 |
| CCOC(CNC(=O)CN1C(=O)COc2ccc(S(=O)(=O)N3CCCC3)cc21)OCC | 16 |
| CC(=O)c1cccc(NC(=O)CCNS(=O)(=O)c2cccc3nsnc23)c1 | 12.9 |
| Cc1ccc(C2=NN(CCC(=O)NCCC(C)C)C(=O)CC2)cc1 | -24.5 |
| O=C(CN(C(=O)c1csnn1)c1cccc2ccccc12)NCc1ccc(F)cc1 | -33.3 |
